In paper PMC4336329 (PLoS ONE, 2015):
Out of some 310,000 compounds screened, about 14,000 (4.5%) showed an effect of 50% or more. Effects have a minus sign here. The list shows a part of the results.

Each compound was assayed against human ether-à-go-go-related gene (hERG) potassium channel (human, UniProt Q12809) (assay: primary screen, population patch clamp on CHO cells stably expressing hERG).
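Further: peak tail current of the secondary pulse compared with the same well before compound.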

Sequence of human ether-à-go-go-related gene (hERG) potassium channel (Q12809 whole entry, looked up): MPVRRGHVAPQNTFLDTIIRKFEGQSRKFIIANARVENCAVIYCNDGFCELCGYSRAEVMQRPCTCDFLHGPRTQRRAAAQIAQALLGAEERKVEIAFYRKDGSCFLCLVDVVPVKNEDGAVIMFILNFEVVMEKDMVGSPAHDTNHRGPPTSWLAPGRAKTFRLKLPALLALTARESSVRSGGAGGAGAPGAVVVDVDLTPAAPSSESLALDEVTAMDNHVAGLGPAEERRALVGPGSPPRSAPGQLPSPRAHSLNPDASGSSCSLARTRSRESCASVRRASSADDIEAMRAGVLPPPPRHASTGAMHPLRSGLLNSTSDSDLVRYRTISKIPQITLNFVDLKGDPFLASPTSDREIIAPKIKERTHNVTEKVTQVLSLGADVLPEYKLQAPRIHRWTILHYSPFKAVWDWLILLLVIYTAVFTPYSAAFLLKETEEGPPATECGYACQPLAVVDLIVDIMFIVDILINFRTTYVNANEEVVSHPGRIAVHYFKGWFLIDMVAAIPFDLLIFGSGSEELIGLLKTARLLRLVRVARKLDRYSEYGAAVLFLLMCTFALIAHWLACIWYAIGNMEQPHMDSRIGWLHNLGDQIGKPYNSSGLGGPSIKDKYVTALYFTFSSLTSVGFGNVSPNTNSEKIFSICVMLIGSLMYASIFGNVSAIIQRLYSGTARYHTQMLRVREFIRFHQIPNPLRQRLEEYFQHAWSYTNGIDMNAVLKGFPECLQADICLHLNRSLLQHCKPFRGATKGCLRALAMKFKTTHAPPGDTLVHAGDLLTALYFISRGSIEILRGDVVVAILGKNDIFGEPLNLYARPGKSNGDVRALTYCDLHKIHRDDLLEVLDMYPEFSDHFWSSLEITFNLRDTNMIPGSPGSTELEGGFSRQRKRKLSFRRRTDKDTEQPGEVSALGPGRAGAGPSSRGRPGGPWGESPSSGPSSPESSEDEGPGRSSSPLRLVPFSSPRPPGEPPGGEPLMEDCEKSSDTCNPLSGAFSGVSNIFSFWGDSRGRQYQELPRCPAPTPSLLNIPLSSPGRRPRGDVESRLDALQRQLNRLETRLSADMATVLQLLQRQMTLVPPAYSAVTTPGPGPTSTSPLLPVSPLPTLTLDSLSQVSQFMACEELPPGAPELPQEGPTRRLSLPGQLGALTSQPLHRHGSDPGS

SMILES	hERG current change (%, negative = inhibition) at 10uM [%]
Cc1ccc(C)c(NC(=O)CN2C(=O)c3ccccc3C2=O)c1	18.1
Cc1ccc(Nc2nc(-c3sc(NC(=O)c4ccc([N+](=O)[O-])cc4)nc3C)cs2)cc1	14
CCC(C)NC(=O)Cn1cc(S(=O)(=O)N2CCN(c3ccccc3F)CC2)c2ccccc2c1=O (centres unmarked)	-4.4
CCOC(=O)C1CCN(c2nc(-c3ccccc3)nc3c2oc2ccccc23)CC1.Cl	2.29
O=C(Nc1ccc(-n2ccc(C(F)(F)F)n2)cc1)Nc1cccc(Cl)c1	14.7
Cc1cc(OCC(=O)NNC(=S)NC(=O)c2ccc(Br)o2)ccc1Cl	14.7
Brc1ccccc1/C=N/Nc1ccc2ccccc2n1	6.86
COCCNC(=O)C(C)OC(=O)c1nsc(Cl)c1Cl (centres unmarked)	-0.412
CN(C(=O)COC(=O)c1ccc2c(c1)OCO2)C1CCS(=O)(=O)C1 (centres unmarked)	9.31
CCCC1(c2ccccc2)NC(=O)NC1=O (centres unmarked)	22.6
O=C(c1cnn2ccccc12)N1CCCc2ccccc21	-14.2
COc1ccccc1C(=O)N1CC(=O)Nc2ccc(F)cc2C1c1ccccc1 (centres unmarked)	-7.83
Cc1nn(CC(=O)NCc2cccc3ccccc23)c(=O)c2ccccc12	15.5
O=c1c([N+](=O)[O-])c(N2CCCC2)c2ccccc2n1-c1ccccc1	-6.38
O=C(CCn1nc(-c2ccccc2)ccc1=O)N1CCN(c2ccccn2)CC1	-53.1
COc1ccc2c(c1OC)C(=O)N1C2SC(C)(C)[C@H]1C(=O)NC(C)C (some centres unmarked)	22.6
O=C1C=C(c2cccc(Cl)c2O)C[C@@H](c2ccc(Cl)cc2)C1	-0.771
Cc1ccc(Cn2nnnc2CN2CCC(NC(=O)c3ccc(Br)cc3)CC2)cc1	-44.7
Cc1ccc(NC(=O)c2ccco2)c(NC(=O)c2ccccc2C)c1	17.9
CCc1ccc(-c2cc(C(=O)N3N=C(C(F)F)CC3(O)C(F)F)c3ccccc3n2)cc1 (centres unmarked)	-15.7
CC(C)C(=O)Nc1ccc2nn(-c3ccc(F)cc3)nc2c1	-1.67
Cn1c(=O)oc2cc(S(=O)(=O)N3CCCC(C(=O)Nc4ccc5c(c4)OCCO5)C3)ccc21 (centres unmarked)	-9.9
COc1ccc(/C=C2\SC(=O)N(CCc3nnc(N)s3)C2=O)cc1	-10.9

SMILES	hERG current change (%, negative = inhibition) at 10uM [%]
COc1ccc(N(C(=O)c2ccco2)S(=O)(=O)c2cc(OC)ccc2OC)cc1	-19.3
COc1ccc(-n2c(O)c(/C=N/NS(=O)(=O)c3ccc(C)cc3)c3ccccc3c2=O)cc1OC	-8.65
NC(=O)C1CCN(CC(=O)NCc2ccccc2)CC1	4.54
CS(=O)(=O)N1CCCC(C(=O)Nc2ccccc2Cl)C1 (centres unmarked)	38.6
O=C(CSc1nc2ccccc2c(=O)[nH]1)c1cccs1	8.81
CN=CC1=C(O)C(C(=O)OC)C(C)(C)CC1=O (centres unmarked)	22.6
O=C(CCc1nc(-c2ccccc2F)no1)NC1CCN(Cc2ccccc2)CC1	-46.4
O=C(Nc1ccc(N2CCCC2)cc1)c1cccc(Cl)c1Cl	23.8
NC(=O)C1CCN(C2CC(=O)N(c3ccc(F)c(Cl)c3)C2=O)CC1 (centres unmarked)	4.25
Cc1csc(NC(=O)c2cccc(S(=O)(=O)N3CCCCC3)c2)n1	-26.7
C=CCn1c(SCC(=O)NCc2ccco2)nc2sc(C)c(C)c2c1=O	3.62
O=C(C1CCCN(Cc2ccccc2[N+](=O)[O-])C1)N1CCCC1.O=C(O)C(=O)O (centres unmarked)	11.4
Cc1cc(OCC(=O)N(C)c2c(N)n(Cc3ccccc3)c(=O)[nH]c2=O)c(C(C)C)cc1Cl	5.98
N#CCC(=O)N1CCCCCC1	-13.6
O=C(Cn1nnc(-c2ccccc2)n1)N=Nc1c(O)[nH]c2ccccc12	22.8
O=C(Cn1cnc([N+](=O)[O-])n1)c1ccccc1	18.7
COc1cc(OC)cc(C(=O)Nc2ccc(S(=O)(=O)Nc3nc(C)cc(C)n3)cc2)c1	22.4
COc1ccccc1C(=O)NNC(=O)c1cccc(F)c1	6.07
CCOC(=O)Cc1csc(NS(=O)(=O)c2ccc3ccccc3c2)n1	46.9
COc1ccc(CNC(=O)CCS(=O)(=O)c2cccc3nonc23)cc1	-16.2
CCOc1ccc(N(C)S(=O)(=O)c2ccc3[nH]cc(C(=O)NCCOC)c(=O)c3c2)cc1	11.3
Cc1ccc(-c2ccc(CCC(=O)O)n2-c2cccc(O)c2)cc1	12.2
O=C1OC(c2cccc([N+](=O)[O-])c2)C2(CCCC2)C(=O)C12CCCCC2 (centres unmarked)	-14.3

SMILES	hERG current change (%, negative = inhibition) at 10uM [%]
COc1ccc(OC)c(/C=N/NC(=O)C(=O)N/N=C/c2cc(OC)ccc2OC)c1	25.4
Cc1ccc(NC(=O)CSc2nnc(C)n2-c2ccccc2)cc1	-3.7
O=C(NCc1ccccc1CN1CCCC1)c1cc2ccccc2o1	-69.4
O=C(Nc1ccc(Cl)cc1)Nc1nc(-c2sccc2Br)cs1	3.97
Cc1cccc(NS(=O)(=O)c2cnc(Cl)c(Br)c2)n1	-9.33
CCCOc1ccccc1/C=C(\C#N)C(=O)Nc1cccnc1	-41.1
COc1ccc(Cc2nc3ccc(C(=O)N(C)Cc4cc(C)[nH]n4)cc3o2)cc1OC	20.8
C#CCC(NC(=O)c1ccc(C#N)cc1)C(=O)NCCC (centres unmarked)	6.83
CCOC1C(=O)NC(=O)N1Cc1ccccc1 (centres unmarked)	5.05
O=C(NCc1ccco1)C1CCN(c2ccc(N3CCOCC3)nn2)CC1	-13
Cc1nc(-c2ccc(Cl)cc2)sc1C1(C)CC(c2ccccc2F)=NO1 (centres unmarked)	12.5
CN(C)c1ccc(C(=O)/C=C/c2cccnc2)cc1	-2.5
O=S(=O)(c1ccc2c(c1)CCN2)N1CCOCC1	-2.2
CC(C)c1nnc(SCC(=O)Nc2ccc3c(c2)OCO3)n1C	4.79
COc1ccc(CCNC(=O)c2ccc([N+](=O)[O-])cc2)cc1	-32.6
O=C(CN1CCN(Cc2ccc(F)cc2)CC1)NCc1ccccc1	-27.5
CN(C)S(=O)(=O)c1ccc2c(c1)c(=O)c(C(=O)NCCCN1CCCCCC1)cn2C	-4.72
Cc1ccc(C)n1NC(=O)c1ccccc1	15
O=C(CC1C(=O)NCCN1Cc1ccccc1C(F)(F)F)NCCN1CCOCC1 (centres unmarked)	9.8
COc1ccc(CN(C(=O)c2cc3ccccc3oc2=O)C2CCS(=O)(=O)C2)cc1 (centres unmarked)	-18.9
CCCCNC(=O)CC1NCCNC1=O (centres unmarked)	22
O=S(=O)(NC1=NCCCCC1)c1ccc(Cl)cc1Cl	-2.95
Cc1cnc(C(=O)OC(C)C(=O)Nc2ccccc2-c2ccccc2)cn1 (centres unmarked)	-5.89

SMILES	hERG current change (%, negative = inhibition) at 10uM [%]
CCN(CC)CCCn1c2c(c(SCC(=O)N3CCc4ccccc43)nc1=O)CCC2	-78.6
CC(=C/c1ccccc1)/C=N/n1c(-c2ccncc2)n[nH]c1=S	0.682
CCc1cccc(CC)c1-n1c(SCC(=O)N2CCc3ccccc3C2)nnc1-c1cccnc1	-19.8
Cc1cc(C)n(CCNS(=O)(=O)c2ccccc2)n1	15.6
C=CCc1cccc(Cl)c1OCCCNC1CCCC1.O=C(O)C(=O)O	-30.3
Cc1ccc(NC2c3ncccc3C(=O)N2Cc2cccs2)cc1C (centres unmarked)	-2.77
CCOc1ccc(N(C)Cc2cc(=O)oc3ccc(OC)cc23)cc1	12.4
CCOC(=O)c1cnn(CCOC(=O)C(C)(C)C)c1NC(=O)C(C)(C)C	12.8
CS(=O)(=O)O.OC(c1cc(C(F)(F)F)nc2c(Cl)cc(Cl)cc12)C1CCCCN1 (centres unmarked)	-23.8
Cc1ccc2nc(SCC(=O)Nc3ccc(F)cc3F)[nH]c2c1	7.57
CCCOC(=O)Nc1cccc(C(C)=O)c1	7.32
NC(=O)c1ccccc1O	20
CC(=O)OC(C#CCN1CCOCC1)c1ccccc1 (centres unmarked)	-6.64
O=S(=O)(CCN1CCOCC1)c1ccc(OC(F)(F)F)cc1	2.9
CN(C)S(=O)(=O)c1ccc(Cl)c(NC(=O)COC(=O)CNC(=O)c2ccco2)c1	-4.39
CSc1ccccc1NC(=O)CSc1nnc(CNC(=O)c2ccccc2F)n1C	11.2
COc1ccc(CCNC(=O)CSc2ccc3nnc(CCNC(=O)c4ccc(C)cc4)n3n2)cc1OC	-5.17
Cc1cc(Oc2ccc(C#N)cc2)nc(N2CCOCC2)n1	1.53
CCN(CC(=O)Nc1c(F)cccc1F)C(=O)C1CCN(c2ncnc3sc(C)c(C)c23)CC1	-57.8
COc1ccc(CNc2nc(NC(C)=O)nn2-c2ccccc2)cc1	9.65
